{
  "source": "the supplement of paper PMC4604168 (melanoma cell lines)",
  "assay_in_all_cases": "cell count relative to DMSO control; melanoma cells; higher = more viable cells",
  "settings_in_all_cases": "library dose: standard library concentration; 72 h",
  "key": {"SkMel28": {"tested_on": "SkMel28"}, "SkMel2": {"tested_on": "SkMel2"}, "SkMel30": {"tested_on": "SkMel30"}, "SkMel5": {"tested_on": "SkMel5"}, "UACC257": {"tested_on": "UACC257"}, "UACC62": {"tested_on": "UACC62"}, "WM115": {"tested_on": "WM115"}, "WM1716": {"tested_on": "WM1716"}, "WM1745": {"tested_on": "WM1745"}, "WM3526": {"tested_on": "WM3526"}},
  "note": "The list shows a part of the results. Most values come without repeats; read them as rough.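 Further: cells treated in 1,536-well plates, then fixed and DAPI-stained, with nuclei counted from automated high-throughput microscope images.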",
  "data": [
    {"smiles": "NC(=O)Nc1cc(-c2cccc(F)c2)sc1C(=O)N[C@H]1CCCNC1", "note": "+ COc1cc(N2CCC(N3CCN(C)CC3)CC2)ccc1Nc1ncc(Cl)c(Nc2ccccc2S(=O)(=O)C(C)C)n1 [NVP-TAE684] (first compound 0.1 µM, partner dose 0.4 µM)", "values": [
      {"measurement": "cell count", "setting": "SkMel28", "result": 28.8, "unit": "%"},
      {"measurement": "cell count", "setting": "SkMel2", "result": 85.8, "unit": "%"},
      {"measurement": "cell count", "setting": "SkMel30", "result": 66.8, "unit": "%"},
      {"measurement": "cell count", "setting": "SkMel5", "result": 89, "unit": "%"},
      {"measurement": "cell count", "setting": "UACC257", "result": 82.3, "unit": "%"},
      {"measurement": "cell count", "setting": "UACC62", "result": 74, "unit": "%"},
      {"measurement": "cell count", "setting": "WM115", "result": 47.7, "unit": "%"},
      {"measurement": "cell count", "setting": "WM1716", "result": 49.6, "unit": "%"},
      {"measurement": "cell count", "setting": "WM1745", "result": 38.1, "unit": "%"},
      {"measurement": "cell count", "setting": "WM3526", "result": 54.8, "unit": "%"}
    ]},
    {"smiles": "Cc1nc(Nc2ncc(C(=O)Nc3c(C)cccc3Cl)s2)cc(N2CCN(CCO)CC2)n1", "note": "[dasatanib] + CN(NC(=O)CC(=O)NN(C)C(=S)c1ccccc1)C(=S)c1ccccc1 [STA4783] (first compound 0.02 µM, partner dose 0.03 µM)", "values": [
      {"measurement": "cell count", "setting": "SkMel28", "result": 14, "unit": "%"},
      {"measurement": "cell count", "setting": "SkMel2", "result": 50.6, "unit": "%"},
      {"measurement": "cell count", "setting": "SkMel30", "result": 92.4, "unit": "%"},
      {"measurement": "cell count", "setting": "SkMel5", "result": 43.9, "unit": "%"},
      {"measurement": "cell count", "setting": "UACC257", "result": 78.1, "unit": "%"},
      {"measurement": "cell count", "setting": "UACC62", "result": 60.8, "unit": "%"},
      {"measurement": "cell count", "setting": "WM115", "result": 29.3, "unit": "%"},
      {"measurement": "cell count", "setting": "WM1716", "result": 46.6, "unit": "%"},
      {"measurement": "cell count", "setting": "WM1745", "result": 20.8, "unit": "%"},
      {"measurement": "cell count", "setting": "WM3526", "result": 76.4, "unit": "%"}
    ]},
    {"smiles": "NCC(=O)Nc1ccc(-n2nc(C(F)(F)F)cc2-c2ccc3c(ccc4ccccc43)c2)cc1", "note": "+ O=C(O)C(=O)Nc1sc2c(c1C(=O)O)CCNC2 [TCS401] (first compound 5 µM, partner dose 8.33333 µM)", "values": [
      {"measurement": "cell count", "setting": "SkMel28", "result": 40.7, "unit": "%"},
      {"measurement": "cell count", "setting": "SkMel2", "result": 37.9, "unit": "%"},
      {"measurement": "cell count", "setting": "SkMel30", "result": 52, "unit": "%"},
      {"measurement": "cell count", "setting": "SkMel5", "result": 72, "unit": "%"},
      {"measurement": "cell count", "setting": "UACC257", "result": 82, "unit": "%"},
      {"measurement": "cell count", "setting": "UACC62", "result": 77.7, "unit": "%"},
      {"measurement": "cell count", "setting": "WM115", "result": 82.4, "unit": "%"},
      {"measurement": "cell count", "setting": "WM1716", "result": 99.2, "unit": "%"},
      {"measurement": "cell count", "setting": "WM1745", "result": 61.7, "unit": "%"},
      {"measurement": "cell count", "setting": "WM3526", "result": 47.8, "unit": "%"}
    ]},
    {"smiles": "C[C@]1(c2nc3c(C(N)=O)cccc3[nH]2)CCCN1", "note": "[Veliparib] + COc1ccc(-c2ccc3c(N4CCOCC4)nc(N4C[C@@H](C)O[C@@H](C)C4)nc3n2)cc1CO [KU0063794] (first compound 7 µM, partner dose 0.1 µM)", "values": [
      {"measurement": "cell count", "setting": "SkMel28", "result": 59.1, "unit": "%"},
      {"measurement": "cell count", "setting": "SkMel2", "result": 80.5, "unit": "%"},
      {"measurement": "cell count", "setting": "SkMel30", "result": 71.8, "unit": "%"},
      {"measurement": "cell count", "setting": "SkMel5", "result": 60.9, "unit": "%"},
      {"measurement": "cell count", "setting": "UACC257", "result": 73.6, "unit": "%"},
      {"measurement": "cell count", "setting": "UACC62", "result": 84, "unit": "%"},
      {"measurement": "cell count", "setting": "WM115", "result": 74.3, "unit": "%"},
      {"measurement": "cell count", "setting": "WM1716", "result": 80.9, "unit": "%"},
      {"measurement": "cell count", "setting": "WM1745", "result": 68.3, "unit": "%"},
      {"measurement": "cell count", "setting": "WM3526", "result": 73.4, "unit": "%"}
    ]},
    {"smiles": "CN(C)S(=O)(=O)c1ccc2c(c1)/C(=C/c1cc3c([nH]1)CCCC3)C(=O)N2", "note": "+ CCN(CC)CCCCNc1ncc2cc(-c3cc(OC)cc(OC)c3)c(NC(=O)NC(C)(C)C)nc2n1 [PD173074] (first compound 2 µM, partner dose 0.5 µM)", "values": [
      {"measurement": "cell count", "setting": "SkMel28", "result": 60.3, "unit": "%"},
      {"measurement": "cell count", "setting": "SkMel2", "result": 98.3, "unit": "%"},
      {"measurement": "cell count", "setting": "SkMel30", "result": 72.7, "unit": "%"},
      {"measurement": "cell count", "setting": "SkMel5", "result": 66.3, "unit": "%"},
      {"measurement": "cell count", "setting": "UACC257", "result": 84.3, "unit": "%"},
      {"measurement": "cell count", "setting": "UACC62", "result": 61.7, "unit": "%"},
      {"measurement": "cell count", "setting": "WM115", "result": 56.8, "unit": "%"},
      {"measurement": "cell count", "setting": "WM1716", "result": 48.2, "unit": "%"},
      {"measurement": "cell count", "setting": "WM1745", "result": 61.7, "unit": "%"},
      {"measurement": "cell count", "setting": "WM3526", "result": 62.3, "unit": "%"}
    ]},
    {"smiles": "NC(=O)Nc1cc(-c2cccc(F)c2)sc1C(=O)N[C@H]1CCCNC1", "note": "+ N#Cc1c(O)c2c(-c3ccc(-c4ccccc4O)cc3)csc2[nH]c1=O [A769662] (first compound 0.1 µM, partner dose 10 µM)", "values": [
      {"measurement": "cell count", "setting": "SkMel28", "result": 36.5, "unit": "%"},
      {"measurement": "cell count", "setting": "SkMel30", "result": 96.5, "unit": "%"},
      {"measurement": "cell count", "setting": "SkMel5", "result": 130, "unit": "%"},
      {"measurement": "cell count", "setting": "UACC257", "result": 131, "unit": "%"},
      {"measurement": "cell count", "setting": "UACC62", "result": 77, "unit": "%"},
      {"measurement": "cell count", "setting": "WM115", "result": 66.5, "unit": "%"},
      {"measurement": "cell count", "setting": "WM1716", "result": 78.1, "unit": "%"},
      {"measurement": "cell count", "setting": "WM1745", "result": 68.9, "unit": "%"},
      {"measurement": "cell count", "setting": "WM3526", "result": 53.1, "unit": "%"}
    ]},
    {"smiles": "NC(=O)Nc1cc(-c2cccc(F)c2)sc1C(=O)N[C@H]1CCCNC1", "note": "+ O=c1cc(-c2cccc3c2Sc2ccccc2S3)oc(N2CCOCC2)c1 [KU55933] (first compound 0.1 µM, partner dose 5 µM)", "values": [
      {"measurement": "cell count", "setting": "SkMel28", "result": 36.1, "unit": "%"},
      {"measurement": "cell count", "setting": "SkMel2", "result": 82.3, "unit": "%"},
      {"measurement": "cell count", "setting": "SkMel30", "result": 76.2, "unit": "%"},
      {"measurement": "cell count", "setting": "SkMel5", "result": 98.3, "unit": "%"},
      {"measurement": "cell count", "setting": "UACC257", "result": 102, "unit": "%"},
      {"measurement": "cell count", "setting": "UACC62", "result": 96.4, "unit": "%"},
      {"measurement": "cell count", "setting": "WM115", "result": 91.2, "unit": "%"},
      {"measurement": "cell count", "setting": "WM1716", "result": 79.2, "unit": "%"},
      {"measurement": "cell count", "setting": "WM1745", "result": 62.5, "unit": "%"},
      {"measurement": "cell count", "setting": "WM3526", "result": 53.4, "unit": "%"}
    ]},
    {"smiles": "C[C@]1(c2nc3c(C(N)=O)cccc3[nH]2)CCCN1", "note": "[Veliparib] + Cc1cc(N2CCOCC2)cc2[nH]c(-c3c(NC[C@@H](O)c4cccc(Cl)c4)cc[nH]c3=O)nc12 [BMS536924] (first compound 7 µM, partner dose 1 µM)", "values": [
      {"measurement": "cell count", "setting": "SkMel28", "result": 69.5, "unit": "%"},
      {"measurement": "cell count", "setting": "SkMel30", "result": 67.2, "unit": "%"},
      {"measurement": "cell count", "setting": "SkMel5", "result": 89.6, "unit": "%"},
      {"measurement": "cell count", "setting": "UACC257", "result": 87.8, "unit": "%"},
      {"measurement": "cell count", "setting": "UACC62", "result": 106, "unit": "%"},
      {"measurement": "cell count", "setting": "WM115", "result": 82.4, "unit": "%"},
      {"measurement": "cell count", "setting": "WM1716", "result": 88.7, "unit": "%"},
      {"measurement": "cell count", "setting": "WM1745", "result": 60.9, "unit": "%"},
      {"measurement": "cell count", "setting": "WM3526", "result": 67.5, "unit": "%"}
    ]},
    {"smiles": "C=CCn1c(=O)c2cnc(Nc3ccc(N4CCN(C)CC4)cc3)nc2n1-c1cccc(C(C)(C)O)n1", "note": "+ NC(=O)Nc1cc(-c2cccc(F)c2)sc1C(=O)N[C@H]1CCCNC1 [AZD7762] (first compound 0.1 µM, partner dose 0.1 µM)", "values": [
      {"measurement": "cell count", "setting": "SkMel28", "result": 16.2, "unit": "%"},
      {"measurement": "cell count", "setting": "SkMel2", "result": 16.4, "unit": "%"},
      {"measurement": "cell count", "setting": "SkMel30", "result": 39.4, "unit": "%"},
      {"measurement": "cell count", "setting": "SkMel5", "result": 30.4, "unit": "%"},
      {"measurement": "cell count", "setting": "UACC257", "result": 78.2, "unit": "%"},
      {"measurement": "cell count", "setting": "UACC62", "result": 59.5, "unit": "%"},
      {"measurement": "cell count", "setting": "WM115", "result": 29.3, "unit": "%"},
      {"measurement": "cell count", "setting": "WM1716", "result": 26.8, "unit": "%"},
      {"measurement": "cell count", "setting": "WM1745", "result": 24.8, "unit": "%"},
      {"measurement": "cell count", "setting": "WM3526", "result": 27.2, "unit": "%"}
    ]}
  ]
}
